Screen size: about 310,000 compounds; about 14,000 (4.5%) showed an effect of 50% or more. The effect is printed as a negative number. This is one part of the list.
These compounds were tested against human ether-à-go-go-related gene (hERG) potassium channel (human, UniProt Q12809) (assay: primary screen, population patch clamp on CHO cells stably expressing hERG).
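Also: peak tail current of the secondary pulse compared with the same well before compound.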

Sequence of human ether-à-go-go-related gene (hERG) potassium channel (Q12809 whole entry, looked up): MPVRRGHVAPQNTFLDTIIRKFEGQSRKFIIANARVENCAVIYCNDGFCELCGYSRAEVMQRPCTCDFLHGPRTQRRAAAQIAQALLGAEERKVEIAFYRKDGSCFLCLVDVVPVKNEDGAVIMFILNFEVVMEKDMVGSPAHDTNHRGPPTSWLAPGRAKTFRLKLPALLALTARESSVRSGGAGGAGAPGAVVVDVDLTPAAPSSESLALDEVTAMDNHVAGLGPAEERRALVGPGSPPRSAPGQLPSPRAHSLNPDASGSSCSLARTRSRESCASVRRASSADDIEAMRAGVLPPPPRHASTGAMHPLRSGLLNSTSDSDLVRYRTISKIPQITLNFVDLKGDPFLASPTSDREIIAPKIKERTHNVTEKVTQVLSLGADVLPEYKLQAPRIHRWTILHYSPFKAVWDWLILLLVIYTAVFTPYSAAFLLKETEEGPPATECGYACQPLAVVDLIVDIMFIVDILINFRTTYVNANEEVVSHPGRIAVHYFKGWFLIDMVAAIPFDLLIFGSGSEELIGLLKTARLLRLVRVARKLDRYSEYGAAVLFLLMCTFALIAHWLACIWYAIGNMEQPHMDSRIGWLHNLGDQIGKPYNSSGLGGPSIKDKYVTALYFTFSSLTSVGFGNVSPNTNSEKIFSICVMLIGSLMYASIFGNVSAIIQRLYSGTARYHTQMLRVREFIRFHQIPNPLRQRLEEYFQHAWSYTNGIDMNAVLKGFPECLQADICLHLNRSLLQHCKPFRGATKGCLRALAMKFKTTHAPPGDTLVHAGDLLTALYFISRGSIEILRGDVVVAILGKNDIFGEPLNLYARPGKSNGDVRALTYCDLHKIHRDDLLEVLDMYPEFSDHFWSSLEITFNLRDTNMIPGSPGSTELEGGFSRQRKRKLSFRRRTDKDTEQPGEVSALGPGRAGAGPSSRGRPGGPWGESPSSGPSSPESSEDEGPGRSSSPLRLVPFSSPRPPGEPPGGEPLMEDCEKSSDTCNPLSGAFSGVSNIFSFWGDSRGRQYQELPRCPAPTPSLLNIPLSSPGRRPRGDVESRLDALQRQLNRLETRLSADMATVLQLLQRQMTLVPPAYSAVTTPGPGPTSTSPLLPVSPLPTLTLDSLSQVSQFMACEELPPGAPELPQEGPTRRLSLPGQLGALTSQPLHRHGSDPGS

Row | SMILES | hERG current change (%, negative = inhibition) at 10uM
1 | Cc1ccc(N2Cc3ccccc3C2=O)cc1 | 6.49%
2 | O=S(=O)(Cc1cnc(Cl)s1)c1ccccc1 | 6.7%
3 | Cc1cc(Br)ccc1NS(=O)(=O)c1c(C)[nH]c(=O)[nH]c1=O | 11.6%
4 | O=C(COc1ccccc1)N1CCNC1=O | -0.563%
5 | CCn1c(Oc2ccccc2)nc2c1c(=O)n(C)c(=O)n2C | 2.72%
6 | COc1ccc(C(=O)NNC(=O)Cc2nc3nc(C)cc(C)n3n2)cc1 | 6.94%
7 | COc1ccc(-c2c(C)n([O-])c3c([n+]2=O)CCC3)cc1OC | 2.8%
8 | Cc1ccc(-c2nn(-c3ccccn3)c(=O)c3ccccc23)cc1C | -30.3%
9 | O=C(c1ccc([N+](=O)[O-])cc1)N1CCN=C1SCc1ccccc1 | -72.2%
10 | Clc1ccc(OCCn2ccnc2)c(Br)c1 | -5.07%
11 | Cc1cc(C)nc(NC(=O)c2cccc([N+](=O)[O-])c2C)n1 | -8.72%
12 | Cc1ccc(-c2csc(NC(=S)NC(=O)c3cc4ccccc4o3)n2)cc1 | 7.09%
13 | COc1ccc(S(=O)(=O)N2CCOCC2)cc1C(=O)Nc1nc2ccccc2s1 | -5.62%
14 | COc1ccc(Cl)cc1NC(=O)N1CCN(c2ccccc2OC)CC1 | -13.4%
15 | CC(C)(C)CC(C)(C)c1ccc(OCC(=O)N/N=C/c2ccc(S(=O)(=O)[O-])o2)cc1 | -2.86%
16 | COc1ccc(C(c2nnnn2Cc2cccs2)N2CCN(c3ccc(F)cc3)CC2)cc1OC (stereo not shown) | -69.4%
17 | CC(C)c1ccc(NC(=O)CC2Oc3ccccc3NC2=O)cc1 (stereo not shown) | 7.14%
18 | CN(C)c1cc(-c2ccc(F)cc2)oc(=O)c1Cl | -16.8%
19 | COc1cc(/C=N/N2CCN(c3ccccc3)CC2)cc(OC)c1OC(C)=O | -39.4%
20 | CC1CCCCN1S(=O)(=O)c1cccc(S(=O)(=O)N2CCOCC2)c1 (stereo not shown) | -18.2%
21 | COc1ccccc1CNC(=O)COc1ccc2c(c1)CCC2 | -1.2%
22 | Cc1ccc(SCC(=O)OCC(=O)NCc2ccco2)cc1 | -2.28%
23 | Cc1n[nH]c(C)c1CCCCOc1ccccc1 | -21.8%

Row | SMILES | hERG current change (%, negative = inhibition) at 10uM
24 | COc1cc2ncnc(NCc3ccccc3Cl)c2cc1OC | 10.9%
25 | c1ccc2c(c1)[nH]c1c(N3CCC4(CC3)OCCO4)ncnc12 | -14.3%
26 | COc1cc(OC)nc(NC(=O)COC(=O)c2cccc(Cl)c2)n1 | 21.2%
27 | CCS(=O)(=O)N1CCC(NC(C)=O)(c2ccccc2)CC1 | 4.18%
28 | CC(C)Sc1nnc([C@H](Cc2ccccc2)NC(=O)OC(C)(C)C)o1 | 3.9%
29 | Cn1c(-c2cnn(-c3ccccc3)c2-n2cccc2)n[nH]c1=S | 9.86%
30 | CC1CC(C)CN(CCCNC(=O)c2nn(C)c3c2CS(=O)(=O)c2ccccc2-3)C1 (stereo not shown) | -64.2%
31 | CCOC(=O)c1sc(C)c2c(=O)n(CC(=O)c3ccc(Br)cc3)nnc12 | -6.99%
32 | O=C(Nc1ccncc1)c1cc2ccccc2cc1O | 5.89%
33 | COc1ccc(S(=O)(=O)N2CCN(C(=O)Cc3cccs3)CC2)cc1 | -1.02%
34 | CCN(CC)CCCNC(=O)C1CCCN(c2nnc(N3CCCC3=O)s2)C1 (stereo not shown) | -5.62%
35 | COc1ccc(C(=O)C2CCCN(C3Cc4ccccc4C3)C2)c(OC)c1 (stereo not shown) | -76.5%
36 | COc1ccc(NC(=S)N2CCN(c3ncccn3)CC2)c(OC)c1 | 7.96%
37 | O=C1CCc2cc(S(=O)(=O)NCCC(=O)NC3CCN(Cc4ccccc4)CC3)ccc2N1 | 3.92%
38 | Cc1sc(NC(=O)c2ccc3ncsc3c2)c(C(N)=O)c1C | 17.7%
39 | C/C(CC(=O)Nc1ccccc1Br)=N\NC(=O)C(=O)N1CCCC1 | -1.55%
40 | C/C(=N\NC(=O)Cc1ccccc1)c1cccnc1 | 15.3%
41 | OC1(c2ccc(Br)cc2)CN(c2ccccc2)C2=[N+]1CCS2.[Br-] (stereo not shown) | -19.5%
42 | CCOc1ccc(S(=O)(=O)N2CCN(C(=S)NCc3ccccc3)CC2)cc1 | -18.2%
43 | Cc1cc(NC(=O)CSc2ccc3nnc(-c4ccccc4)n3n2)no1 | -22.5%
44 | CCN(CC)c1ccc(NC(=O)c2ccc3c(c2)OCO3)cc1 | 9.22%
45 | COc1ccc(N/C=C/C(=O)c2ccc(Cl)cc2)cc1 | -13.7%
46 | CCN(CC)CCNC(=O)c1ccc(Sc2ccc(Cl)cc2)c(NC(C)=O)c1 | -61.7%

Row | SMILES | hERG current change (%, negative = inhibition) at 10uM
47 | CCc1cccc(C)c1NC(=O)c1cc(=O)[nH]c2ccc(S(=O)(=O)N3CCOCC3)cc12 | 0.437%
48 | CCn1c(CNc2ccccc2Cl)nnc1SCC(=O)NCc1ccccc1 | -27%
49 | O=S(=O)(NCC1CCCO1)c1ccc(-c2ccc(Cl)cc2)cc1 (stereo not shown) | 2.48%
50 | C#CCOc1ccc2c(c1)c(C(C)=O)c(C)n2Cc1ccccc1 | 1.69%
51 | C=C1CCN(C(CC(C)C)C(=O)OC)S(=O)(=O)c2ccccc21 (stereo not shown) | -7.08%
52 | CC(=O)C1=C(c2ccccc2)OC(N)=C(C#N)C1c1ccccc1F (stereo not shown) | -2.9%
53 | Cc1noc(C)c1COc1cccc(C(=O)Nc2ccccc2N2CCOCC2)c1 | -2.8%
54 | O=C(COC(=O)c1cnccn1)Nc1ncc(Cl)cc1Cl | 7.93%
55 | Cc1oc(/C=N/NC(=O)CN(c2ccccc2Cl)S(C)(=O)=O)cc1Br | -13.8%
56 | C(/CCc1ccccc1)=N\Nc1nc2ccccc2[nH]1 | -26.6%
57 | CC(C)COc1ccc(C(=O)Nc2ccccc2[N+](=O)[O-])cc1 | 15.2%
58 | COc1cc(S(=O)(=O)N(Cc2ccccn2)Cc2ccco2)ccc1-n1cnnn1 | -32.4%
59 | CCOC(=O)C1C(=O)OC(C)(C)C1C(C)C(=O)c1ccc(OC)cc1 (stereo not shown) | -4.81%
60 | O=S(=O)(Nc1cccnc1)c1cccs1 | 18.1%
61 | CCc1ccc(C(=O)N2CCCC2)s1 | 14.2%
62 | Cc1ccc(OCC(=O)NCCCNC(=O)c2ccccn2)cc1 | 2.23%
63 | CCOC(=O)Cn1c(C)cc(=O)c2cccc(C)c21 | -9.34%
64 | O=C(NC(=S)N1CCN(c2nc(-c3ccccc3)cs2)CC1)c1cccnc1 | -1.93%
65 | O=C1CS/C(=N/N=C/c2ccccc2OS(=O)(=O)c2ccccc2)N1 | -4.05%
66 | CCN(CC(=O)NCc1cccs1)C(=O)c1ccccc1Cl | -0.291%
67 | CCOC(=O)C1CCN(c2ncnc3c2nnn3Cc2ccccc2Cl)CC1 | -29.8%
68 | CCCN1CCC(CCOc2ccccc2)(C(=O)OCC)CC1 | -58.5%
69 | CC1CCCCN1C(=O)c1ccc(N2CC3CC(C2)c2cccc(=O)n2C3)c([N+](=O)[O-])c1 (stereo not shown) | -15.9%

Row | SMILES | hERG current change (%, negative = inhibition) at 10uM
70 | COC(=O)CC(C(=O)Nc1cc(C(=O)OC)cc(C(=O)OC)c1)N1CCN(C)CC1 (stereo not shown) | 11.5%
71 | COc1ccc(S(=O)(=O)N(C)C(C)CCc2ccco2)cc1 (stereo not shown) | -12.3%
72 | COc1ccc(C(O)Cn2c(=N)n(CCCN(C)C)c3ccccc32)cc1.Cl (stereo not shown) | -13%
73 | O=c1c2cn[nH]c2[nH]c(=S)n1-c1ccccc1 | 20.1%
74 | O=C(NCCCNc1ccc(C(F)(F)F)cc1[N+](=O)[O-])c1ccc(F)cc1 | -19.9%
75 | CC(C)CNC(=O)CN1C(=O)NC2(CCCc3ccccc32)C1=O (stereo not shown) | 15.3%
76 | O=C1CSC(=Nc2cccc(Cl)c2Cl)N1Cc1cccnc1 | -42.8%
77 | CCc1noc(C)c1C(=O)NNC(=O)COc1ccc(C)cc1 | 11%
78 | COCCN(C(=O)CCC(=O)Nc1ccccn1)C(C(=O)NC(C)(C)C)c1ccc(OC)cc1 (stereo not shown) | 11.3%
79 | O=C(Nc1ccc2c(c1)OCCO2)c1cccc2nc3ccccc3nc12 | 19.1%
80 | COc1cccc(OC)c1C(=O)Nc1cc(Cl)ccc1N1CCOCC1 | -36.3%
81 | O=C1C=C(c2cc3ccccc3o2)C[C@@H](c2ccc(F)cc2)C1 | 2.02%
82 | CC(=O)N1CSCC1C(=O)NNS(=O)(=O)c1cccc(C(F)(F)F)c1 (stereo not shown) | 8.58%
83 | C=CCNC(=O)c1c(CSc2ccc(Cl)cc2)noc1C(=O)NCCC | -10.8%
84 | Cc1ccc(N(C)C(=O)Oc2ccc(C(=O)c3ccc(Cl)cc3)cc2)cc1 | 5.57%
85 | COc1cc(OC)nc(Oc2ccc(N)c(C)c2)n1 | -1.88%
86 | COc1cc(/C=N/N=C2\CC3CCC2(C)C3(C)C)ccc1O (stereo not shown) | -17.6%
87 | CCCn1c(C)cc(/C=C(\C#N)C(=O)OCC(=O)Nc2cc(OC)c(OC)c(OC)c2)c1C | -10.2%
88 | CCOC(=O)CNC(=O)Cn1c(C)cc2ccccc2c1=O | 18.7%
89 | O=C(CSc1nc(C2CCCCC2)nc2ccccc12)N1CCCC1 | -12.6%
90 | CC(C)CCN1CCN(Cc2cc3ccccc3[nH]2)CC1CCO (stereo not shown) | -22.4%
91 | Cc1ccc[n+](CC(=O)Nc2c(Cl)cc(Cl)cc2Cl)c1.[Cl-] | 11%
